Data as given in PubChem BioAssay AID1346428 (National Center for Advancing Translational Sciences (NCATS), 2018).
The whole screen tested about 48,000 compounds, of which about 1,200 (2.5%) were called active. Inconclusive results (about 2%) are left out.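 Rule for the calls: active = activation of at least 60% and not above a set upper limit (about 1 call in 100 departs from these limits); inconclusive = activation of 40% to 60%, or above that upper limit; inactive = activation under 40%.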 This is one part of the list.

target: Probable G-protein coupled receptor 32 (Homo sapiens) (UniProt O75388); test: qHTS for Agonists of Human Resolvin D1 Receptor DRV1; conditions: CHO-K1 GPR32 beta-arrestin PathHunter luminescence, 90 min; at 76.9 µM; stronger effect = higher value; zero percent set by DMSO-only wells; note: 0% is about no effect
Outline: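 Step 1: seed CHO-K1 GPR32 beta-arrestin cells, 2,500/well, overnight at 37 °C. Step 2: add compounds, 90 min at 37 °C. Step 3: detection reagent, 1 h ambient, then luminescence.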

Chain of UniProt O75388 (O75388 whole entry, looked up): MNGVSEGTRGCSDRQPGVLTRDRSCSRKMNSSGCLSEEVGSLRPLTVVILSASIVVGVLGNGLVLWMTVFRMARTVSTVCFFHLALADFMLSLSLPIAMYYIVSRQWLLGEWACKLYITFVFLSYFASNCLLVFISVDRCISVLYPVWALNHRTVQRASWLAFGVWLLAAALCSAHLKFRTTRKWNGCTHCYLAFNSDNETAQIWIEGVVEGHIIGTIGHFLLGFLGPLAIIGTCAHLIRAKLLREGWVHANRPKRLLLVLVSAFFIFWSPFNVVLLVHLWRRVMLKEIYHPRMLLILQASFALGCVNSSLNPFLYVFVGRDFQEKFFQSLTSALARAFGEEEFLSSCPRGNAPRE

Row | SMILES | activation
1 | Cc1ccc(-c2nc(N3CCCC(C)C3)c3ccccc3n2)cc1 (configuration not stated) | inactive: 31.7%
2 | COc1ccc(CCNCc2ccc3c(c2)n(C)c(=O)n3C)cc1OC | inactive: 3.45%
3 | Cc1ccc(CNC(=O)c2ccc3c(O)c(S(=O)(=O)c4ccc(Cl)cc4)c(=O)[nH]c3c2)cc1 | inactive: -10.7%
4 | Cc1nn(C)c2c1c(-c1ccccc1)cc(=O)n2CC(=O)NC(C)C | inactive: -14.4%
5 | COc1cccc(CNC(=O)C2CCCN(c3nc4ccccc4n4cccc34)C2)c1 (configuration not stated) | inactive: -15.4%
6 | Cc1ccc(CN2CCCn3nc(C(=O)NCCc4ccccc4Cl)cc3C2=O)cc1 | inactive: 37.1%
7 | CCCn1c2ccc(F)cc2c2nnc(SCCN(CC)CC)nc21 | inactive: -12%
8 | Cc1c(C(=O)Nc2ccccc2Cl)oc2ccc(S(=O)(=O)N3CCCCC3)cc12 | inactive: -4.75%
9 | Cc1ccc(C(=O)Nc2cccc(C(=O)OCc3cc(=O)n4nc(C5CC5)sc4n3)c2)cc1 | inactive: -2.3%
10 | COc1ccc(C)cc1NC(=O)c1cc(S(=O)(=O)N2CCN(c3cccc(C)c3C)CC2)ccc1F | inactive: 5.48%
11 | Clc1ccc(Nc2c(-c3ccccc3Cl)nc3ccc(Cl)cn23)cc1 | inactive: 4.31%
12 | COc1ccc(-n2nc(C(=O)NCc3ccc(F)cc3Cl)c3c4ccccc4n(C)c3c2=O)cc1Cl | inactive: 16.8%
13 | CCOc1ccc(N2CC(NC(=O)C3CC3)CC2=O)cc1 (configuration not stated) | inactive: -4.68%
14 | CCCOc1ccc(C2CC(=O)Nc3c2c(=O)n(C)c(=O)n3C)cc1OC (configuration not stated) | inactive: -28.8%
15 | COCC(C)Nc1ncnc2c1cnn2-c1ccc(C)c(C)c1 (configuration not stated) | inactive: 7.14%
16 | CCCCN(CC)CCCNC(=O)Cn1ncc2c3ccccc3n(Cc3ccc(F)cc3)c2c1=O | inactive: -11.5%
17 | CC(NC(=O)c1ccc2c(c1)sc1nc(-c3ccccc3)cn12)C12CC3CC(CC(C3)C1)C2 (configuration not stated) | inactive: -4.92%
18 | Cc1cccc(C(=O)Oc2c(Sc3ccccc3)c(C)nn2C(C)(C)C)c1 | inactive: -21.1%
19 | Cn1c(=O)c(=O)n(C)c2cc(S(=O)(=O)N3CCN(c4ccccc4)CC3)ccc21 | inactive: 0.571%
20 | COc1ccc(-n2cc(C(=O)OCc3ccc(Cl)cc3)c3ccccc3c2=O)cc1 | inactive: -5.04%
21 | CCOc1ccc(Nc2sc(C(=O)c3cccc(OC)c3)c(N)c2S(=O)(=O)c2ccccc2)cc1 | inactive: -4.95%

Row | SMILES | activation
22 | COc1ccc(NC(=O)C2CCN(S(=O)(=O)c3ccc4c(c3)CCCC(=O)N4)CC2)c(OC)c1 | inactive: -5.99%
23 | Cc1c(C(=O)OC2CCCCCC2)[nH]c2c1C(=O)CC(c1ccc(N(C)C)cc1)C2 (configuration not stated) | inactive: -0.597%
24 | COc1cc(OC)cc(C(=O)Nc2cc(-c3nc4cccnc4s3)ccc2C)c1 | inactive: -0.0257%
25 | CCC(C(=O)Nc1ccc(C(=O)OC)cc1)n1nc(-c2ccc(C)c(C)c2)ccc1=O (configuration not stated) | inactive: -20.5%
26 | CCCn1c(=O)c2[nH]c(-c3ccc(OCC(=O)NCCN)cc3)nc2n(CCC)c1=O | inactive: -19.4%
27 | Cc1ccc(NC(=O)CSc2ccc(-c3ccccn3)nn2)cc1F | inactive: 12.7%
28 | COc1ccc(S(=O)(=O)N(CC(=O)NCCSCc2ccccc2)c2ccc(C)cc2)cc1 | inactive: 21.9%
29 | CCOc1ccc(CNC(=O)Cn2ccc3cc(S(=O)(=O)N4CCCCC4)ccc32)cc1 | active: 77.4%
30 | Cn1c(=O)c(=O)n(C)c2cc(S(=O)(=O)N3CCCC3C(=O)Nc3ccc(F)cc3)ccc21 (configuration not stated) | inactive: -3.59%
31 | Cc1ccc(Cn2c(=O)n(-c3cc(C)cc(C)c3)c(=O)c3oc4ccccc4c32)cc1 | inactive: -24.3%
32 | O=C(c1ccccc1Br)N1CCC(c2nc3ccccc3o2)CC1 | inactive: -7.27%
33 | N#Cc1c(C(F)(F)F)cc(-c2cccs2)nc1SCC(=O)Nc1cccc(C(F)(F)F)c1 | inactive: 1.79%
34 | Cc1ccc(S(=O)(=O)/C=C/C#N)cc1 | inactive: -35.1%
35 | COc1ccc(S(=O)(=O)N(Cc2nc(-c3ccc(Cl)cc3)no2)C2CCCCC2)cc1 | inactive: -20.9%
36 | Cc1ccc(S(=O)(=O)NCc2ccc(C(=O)NCCc3cccc(C)c3)cc2)cc1 | inactive: 28.8%
37 | Cc1oc(C)c2c(=O)cc(-c3ccc4c(c3)OCO4)cc(OC(=O)c3cccc(Cl)c3)c12 | inactive: -11.4%
38 | O=S(=O)(c1ccc(-n2cnnn2)cc1)N1CCN(c2cccc(C(F)(F)F)c2)CC1 | inactive: 20%
39 | COc1ccccc1NC(=O)C(Cc1ccccc1)NS(=O)(=O)c1cccc2nsnc12 (configuration not stated) | inactive: -12.8%
40 | Cc1ccsc1CN(C(=O)COc1cccc(C)c1C)C1CCS(=O)(=O)C1 (configuration not stated) | inactive: -22.5%
41 | COc1cc(Cl)c(C)cc1NC(=O)c1sc2nc(C)cc(C)c2c1N | inactive: -2.85%
42 | COc1cc(C(=O)N(Cc2cccnc2)c2nc3cc(C)c(C)cc3s2)cc(OC)c1OC | inactive: -19.6%

Row | SMILES | activation
43 | CCOC(=O)COc1ccc(F)cc1C(=O)c1ccn2nc(-c3ccc(C)cc3)cc2n1 | inactive: -8.14%
44 | CN1C(=O)C(C)(C)c2cc(S(=O)(=O)N3CCCC3C(=O)Nc3ccc(F)cc3)ccc21 (configuration not stated) | inactive: -2.16%
45 | COc1ccc(OC)c(NC(=O)CSc2nc3ccccc3c(=O)n2CCC(=O)NC2CCCCC2)c1 | inactive: 7.75%
46 | O=C(Cn1c(SCC(=O)Nc2ccc(F)cc2)nc2ccccc21)NCc1ccccc1Cl | active: 70.1%
47 | CCCCOC(=O)c1cccc(NC(=O)/C=C/c2ccccc2Cl)c1 | inactive: -27.5%
48 | CCCCOc1ccccc1C(=O)N(Cc1cccc(F)c1)C1CCS(=O)(=O)C1 (configuration not stated) | inactive: -10.3%
49 | Cc1ccc(NC(=O)c2ccc(CNS(=O)(=O)c3ccc4c(c3)C(C)(C)C(=O)N4C)cc2)cc1F | inactive: 5.88%
50 | O=C(NCC(c1cccnc1)N1CCc2ccccc21)c1ccc(F)cc1 (configuration not stated) | inactive: -29.3%
51 | CCOc1ccc(NC(=O)N(C)CCc2c(C)nn(C)c2C)cc1 | inactive: -9.89%
52 | CCOC(=O)C1=C(CN(C)Cc2ccccc2)NC(=O)NC1c1ccc(OC)cc1 (configuration not stated) | inactive: -8.86%
53 | CCOc1ccc(CCNC(=O)CSc2nnnn2-c2ccc(C)cc2C)cc1OCC | inactive: 20.2%
54 | COc1ccc(OC(C)C(=O)NCc2nc(-c3cccc(C)c3)no2)cc1 (configuration not stated) | inactive: -4.69%
55 | COc1cc(OC)c(NC(=O)C(Cc2ccccc2)NS(=O)(=O)c2cccc3nsnc23)cc1Cl (configuration not stated) | inactive: -17.8%
56 | CN(C)c1ccc(NC(=O)CSc2nc3ccsc3c(=O)n2CCCCCC(=O)O)cc1 | inactive: -12.8%
57 | Cc1c(C(=O)N(Cc2ccco2)Cc2ccccc2Cl)oc2ccc(F)cc12 | inactive: 5.73%
58 | COc1ccc(CC(=O)Nc2cc(-c3cn4cccnc4n3)ccc2OC)cc1 | inactive: -12.4%
59 | CCCCC(=O)NC1(C(F)(F)F)C(=O)Nc2c1c(=O)[nH]c(=O)n2-c1ccc(C)c(C)c1 (configuration not stated) | inactive: -2.88%
60 | O=C(Nc1ccc2nc(SCCOc3ccccc3Cl)sc2c1)c1ccc2c(c1)OCO2 | inactive: -1.12%
61 | CCS(=O)(=O)c1ccccc1C(=O)Nc1ccc(-c2nc3ccccc3s2)cc1 | inactive: -16.1%
62 | CC(C)CCNC(=O)CN1C(=O)c2cccnc2Sc2ccccc21 | inactive: -16.1%
63 | CC(=O)c1cccc(NC(=O)Cc2noc3ccccc23)c1 | inactive: -21.9%

Row | SMILES | activation
64 | COc1cccc(NC(=O)CSC2=Nc3ccccc3C3=NC(CC(=O)NCc4ccc5c(c4)OCO5)C(=O)N23)c1 (configuration not stated) | inactive: 23.5%
65 | Cc1cc(C)c(NC(=O)C(=O)NCC(c2cccnc2)N2CCN(Cc3ccccc3)CC2)c(C)c1 (configuration not stated) | inactive: -10.4%
66 | Cc1ccccc1-c1noc(-c2ccc(N3CCN(C)CC3)c([N+](=O)[O-])c2)n1 | inactive: -9.06%
67 | CCCCNC(=O)c1cnc2sc(N3CCCCCC3)nn2c1=O | inactive: -6.96%
68 | COc1ccc(C)cc1NC(=O)Nc1ccccc1OCc1cc(=O)n2ccccc2n1 | inactive: -15%
69 | CSc1nn(Cc2cccc(Cl)c2)c(N(C(C)=O)C(C)=O)c1S(=O)(=O)c1ccccc1 | active: 76.1%
70 | COc1ccc2c(c1)c1c(c(=O)n(-c3ccccc3)c(=O)n1CC(=O)NCc1ccc(C)cc1)n2C | inactive: 0.73%
71 | COc1ccc(C2C(=O)N(C3CCC(C)CC3)CC(=O)N2C2CCCC2)cc1OC (configuration not stated) | inactive: -12.2%
72 | COc1ccc(CC(=O)N(Cc2nc(-c3ccc(C)cc3)no2)C(C)C)cc1 | inactive: -3.35%
73 | O=C(CSc1nc2nccnc2c(=O)n1CCc1c[nH]c2ccccc12)Nc1ccc(F)cc1 | inactive: 8.51%
74 | CCN(C(=O)c1c(C)oc2ncn(CC(C)C)c(=O)c12)c1cccc(Cl)c1 | inactive: -14.2%
75 | CCCCNC(=O)CCn1c(=O)c2cccn2c2cccnc21 | inactive: -5.19%
76 | COc1ccc(C)cc1NC(=O)c1cc(S(=O)(=O)N2CCc3ccccc3C2)ccc1F | inactive: -10.5%
77 | Cc1oc(-c2ccc(C(=O)NCc3ccccc3Cl)cc2)nc1CN1CCc2ccccc21 | inactive: -1.77%
78 | CCCn1c(CCC(=O)Nc2ccc(C)c(Cl)c2)nc2cccnc21 | inactive: -24.9%
79 | O=C(CC1N=C2c3ccccc3N=C(SCc3cccc(Cl)c3)N2C1=O)NCCc1ccccc1 (configuration not stated) | inactive: 40.8%
80 | CCC1=C(c2ccc(C)cc2)S(=O)(=O)N=C1N1CCC(C(=O)NCCc2ccc(Cl)cc2)CC1 | inactive: -15.9%
81 | Cc1ccc(CCNC(=O)c2c[nH]c3ccc(S(=O)(=O)Nc4cccc(C(F)(F)F)c4)cc3c2=O)cc1 | inactive: -14.8%
82 | Cc1ccc(S(=O)(=O)C(CNC(=O)C(=O)NCCc2ccc(Cl)cc2)c2cccs2)cc1 (configuration not stated) | inactive: -0.141%
